Here are results for 10 molecules from patent US20260232830A1, “ANTIGEN BINDING MOLECULE SPECIFICALLY BINDING TO EGFR AND MUC1, DRUG CONJUGATE THEREOF, AND MEDICAL USE THEREOF” (Jiangsu Hengrui Pharmaceuticals Co., Ltd., priority 2023, published 2026).

Residue numbers refer to the chain shown, from its start.

For this assay, the target named is human EGFR-His antigen (Homo sapiens, UniProt P00533). Kind of assay: Determination of affinity of anti-EGFR antibodies using Biacore. The conditions noted are these: Table 22, Biacore 8K, 1:1 binding model. Background: SPR reads the build-up and loss of mass on a sensor chip optically.

B1: ZalH5: anti-EGFR antibody, zalutumumab variant: VH ZalVH5 (SEQ ID NO: 139), VL ZalVL1 (antibody)
heavy: QVQLVESGGGVVQPGRSLRLSCAASGFTFSTYGMHWVRQAPGKGLEWVAVIWDDGSYKYYGDSVKGRFTISRDNSKNTLYLQMNSLRAEDTAVYYCARDGATMVRGVMKDYFDYWGQGTLVTVSS[human IgG1 constant region not spelt out]
light: DIQLTQSPSSLSASVGDRVTITCRASQDISSALVWYQQKPGKAPKLLIYDASSLESGVPSRFSGSESGTDFTLTISSLQPEDFATYYCQQFNSYPLTFGGGTKVEIKRTVAAPSVFIFPPSDEQLKSGTASVVCLLNNFYPREAKVQWKVDNALQSGNSQESVTEQDSKDSTYSLSSTLTLSKADYEKHKVYACEVTHQGLSSPVTKSFNRGEC
On to B1, for which the “ka” value is 129000 M⁻¹ s⁻¹ and the “kd” value is 0.0125 s⁻¹.

B2: ZalH8: anti-EGFR antibody, zalutumumab variant: VH ZalVH8 (SEQ ID NO: 142), VL ZalVL1 (antibody)
heavy: B1 heavy with T31S, A101L
light: B1 light
B2: the “ka” value was 76500 M⁻¹ s⁻¹ and the “kd” value was 0.0369 s⁻¹.

B3: ZalH3: anti-EGFR antibody, zalutumumab variant: VH ZalVH3 (SEQ ID NO: 137), VL ZalVL1 (antibody)
heavy: B1 heavy with A101L
light: B1 light
For the molecule B3, the “ka” value was determined as 80500 M⁻¹ s⁻¹ and the “kd” value came to 0.0243 s⁻¹.

B4: ZalH2: anti-EGFR antibody, zalutumumab variant: VH ZalVH2 (SEQ ID NO: 136), VL ZalVL1 (antibody)
heavy: B1 heavy with D53E, A101I
light: B1 light
B4: the “ka” value worked out at 87400 M⁻¹ s⁻¹ and the “kd” value stood at 0.00812 s⁻¹.

B5: ZalH14: anti-EGFR antibody, zalutumumab variant: VH ZalVH14 (SEQ ID NO: 148), VL ZalVL1 (antibody)
heavy: B1 heavy with D53Y, Y57N, G61A, A101I
light: B1 light
Consider B5, for which the “ka” value worked out at 131000 M⁻¹ s⁻¹ and the “kd” value is 0.0275 s⁻¹.

B6: ZalH7: anti-EGFR antibody, zalutumumab variant: VH ZalVH7 (SEQ ID NO: 141), VL ZalVL1 (antibody)
heavy: B1 heavy with T31S, D53E, A101I
light: B1 light
Consider B6, for which the “ka” value turned out to be 79500 M⁻¹ s⁻¹ and the “kd” value worked out at 0.00761 s⁻¹.

B7: ZalH9: anti-EGFR antibody, zalutumumab variant: VH ZalVH9 (SEQ ID NO: 143), VL ZalVL1 (antibody)
heavy: B1 heavy with T31S, A101V
light: B1 light
For the molecule B7, the “ka” value amounted to 45400 M⁻¹ s⁻¹ and the “kd” value was determined as 0.00234 s⁻¹.

B8: ZalH12: anti-EGFR antibody, zalutumumab variant: VH ZalVH12 (SEQ ID NO: 146), VL ZalVL1 (antibody)
heavy: B1 heavy with Y57N, A101I
light: B1 light
As to B8, the “ka” value stood at 120000 M⁻¹ s⁻¹ and the “kd” value worked out at 0.0144 s⁻¹.

B9: ZalH10: anti-EGFR antibody, zalutumumab variant: VH ZalVH10 (SEQ ID NO: 144), VL ZalVL1 (antibody)
heavy: B1 heavy with T31S
light: B1 light
With B9, the “ka” value came to 131000 M⁻¹ s⁻¹ and the “kd” value worked out at 0.0174 s⁻¹.

B10: ZalH13: anti-EGFR antibody, zalutumumab variant: VH ZalVH13 (SEQ ID NO: 147), VL ZalVL1 (antibody)
heavy: B1 heavy with T31S, G33A, A101I
light: B1 light
As for B10, the “ka” value stood at 95500 M⁻¹ s⁻¹ and the “kd” value came to 0.000187 s⁻¹.
